# Assay results taken from paper PMC4336329 (PLoS ONE, 2015).
# The campaign covered roughly 310,000 compounds. About 14,000 (4.5%) showed an effect of 50% or more. Effects have a minus sign here. This is one part of the list.
# Biological target: human ether-à-go-go-related gene (hERG) potassium channel (human, UniProt Q12809)
# Test: primary screen, population patch clamp on CHO cells stably expressing hERG
# 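Also: peak tail current of the secondary pulse compared with the same well before compound.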
# Sequence of human ether-à-go-go-related gene (hERG) potassium channel (Q12809 whole entry, looked up): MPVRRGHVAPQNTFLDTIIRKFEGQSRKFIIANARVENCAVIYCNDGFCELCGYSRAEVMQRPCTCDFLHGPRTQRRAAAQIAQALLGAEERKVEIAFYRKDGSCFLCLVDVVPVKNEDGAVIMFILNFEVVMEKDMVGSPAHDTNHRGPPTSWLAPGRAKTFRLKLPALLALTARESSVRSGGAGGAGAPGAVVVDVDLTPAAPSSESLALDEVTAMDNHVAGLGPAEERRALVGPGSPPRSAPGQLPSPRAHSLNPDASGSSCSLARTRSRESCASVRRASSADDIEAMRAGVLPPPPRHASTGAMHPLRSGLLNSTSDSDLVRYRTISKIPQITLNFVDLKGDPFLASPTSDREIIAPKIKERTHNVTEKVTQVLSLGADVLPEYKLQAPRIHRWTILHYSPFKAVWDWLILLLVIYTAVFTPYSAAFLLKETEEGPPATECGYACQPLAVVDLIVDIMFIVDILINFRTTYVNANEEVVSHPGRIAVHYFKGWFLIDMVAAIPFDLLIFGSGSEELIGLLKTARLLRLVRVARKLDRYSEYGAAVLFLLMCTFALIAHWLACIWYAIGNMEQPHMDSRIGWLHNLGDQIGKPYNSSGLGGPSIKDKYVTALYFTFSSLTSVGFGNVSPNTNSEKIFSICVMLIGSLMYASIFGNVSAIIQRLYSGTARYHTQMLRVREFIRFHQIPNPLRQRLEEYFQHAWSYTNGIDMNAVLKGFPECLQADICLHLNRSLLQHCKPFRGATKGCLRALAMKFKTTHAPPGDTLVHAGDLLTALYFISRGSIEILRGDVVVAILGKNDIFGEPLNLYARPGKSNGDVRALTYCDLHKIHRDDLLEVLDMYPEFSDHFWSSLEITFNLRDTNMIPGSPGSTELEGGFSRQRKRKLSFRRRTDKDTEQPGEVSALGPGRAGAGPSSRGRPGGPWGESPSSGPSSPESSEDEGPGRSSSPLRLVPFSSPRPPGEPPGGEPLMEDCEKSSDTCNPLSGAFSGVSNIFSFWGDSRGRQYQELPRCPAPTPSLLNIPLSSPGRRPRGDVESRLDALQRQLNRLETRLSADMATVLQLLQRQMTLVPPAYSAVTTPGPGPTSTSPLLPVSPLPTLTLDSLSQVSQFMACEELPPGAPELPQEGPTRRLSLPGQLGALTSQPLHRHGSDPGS
row,Compound,"hERG current change (%, negative = inhibition) at 10uM"
1,COc1cc(OC)cc(-c2c(C#Cc3ccsc3)c3cc(-c4ccc(C(N)=O)cc4)ccc3n2C)c1,22.3%
2,Cc1ccc(SCc2nc(N)nc(Nc3ccccc3C)n2)cc1C,1.31%
3,Cc1ccc(S(=O)(=O)c2nnn3c2nc(N2CCOCC2)c2ccccc23)cc1C,-27.4%
4,CCc1ccccc1N1CC23C=CC(O2)C(C(=O)O)C3C1=O (stereo not shown),1.61%
5,COc1ccc2nc(N3CCCC3)[nH]c2c1.Cl,-15.7%
6,CCOC(=O)c1c(C)oc2c1c(C=NC1CCS(=O)(=O)C1)c(O)c1ccccc12 (stereo not shown),-1.88%
7,COC(=O)c1ccc(CSc2nnc3c(Cl)cc(Cl)cn23)o1,10.9%
8,N#Cc1ccc(Oc2ccc(-c3nc4ccccc4nc3-c3ccccc3)cc2)cc1C#N,4.32%
9,CCC1(C(=O)OC)CCc2c(cc(OC)c3ccccc23)C1=O (stereo not shown),3.07%
10,O=C(NCC1CC1)Nc1cccs1,10.5%
11,O=C(NC1CCCc2ccccc21)c1cncc(Br)c1 (stereo not shown),8.69%
12,CCN1CCN(CCOc2ccccc2-c2ccccc2)CC1.O=C(O)C(=O)O,-32.9%
13,O=C(OCC(=O)N1CCCC1)c1ccc(Cl)c([N+](=O)[O-])c1,-14.4%
14,COc1ccc2c(c1OC)C(=O)OC2Nc1ccccc1S(=O)(=O)C(F)F (stereo not shown),15.1%
15,CCc1cccc(OCCOCCN2CCCC2)c1.O=C(O)C(=O)O,-46.1%
16,O=C(Cc1ccc(Cl)c(Cl)c1)OCC(=O)c1ccc[nH]1,-24.9%
17,CN(Cc1nc2ccc(F)cc2[nH]1)Cc1c(C(=O)N(C)C)nc2ccc(Cl)cn12,-43.3%
18,Cc1ccc(/C=N/NC(=O)c2ccccc2OCc2cccc(Br)c2)o1,-24%
19,NS(=O)(=O)c1ccc2c(c1)C(=NO)c1cc(S(N)(=O)=O)ccc1-2,7.26%
20,COc1cc(NC(=S)NC(=O)c2ccco2)ccc1NC(=O)C(C)C,1.81%
21,Cc1ccc(C(=O)OCC(=O)NC2CCCC2)cc1C,7.5%
22,Cn1c(SCc2cccc(Cl)c2)nc(C(F)(F)F)cc1=O,20%

row,Compound,"hERG current change (%, negative = inhibition) at 10uM"
1,CC(OC(=O)CC1CC2CCC1C2)C(=O)Nc1cccc(S(=O)(=O)N2CCOCC2)c1 (stereo not shown),-4.23%
2,CCC1CCCCN1CCCNC(=O)Cn1c(=O)c2cccn2c2ccccc21 (stereo not shown),-4.16%
3,c1ccc(-n2c(-c3ccco3)nnc2N2CCOCC2)cc1,13.9%
4,COc1ccc(S(=O)(=O)N2CCCCC2)cc1NC(=O)c1cc([N+](=O)[O-])ccc1N1CCOCC1,-30.4%
5,CCOC(=O)c1c(C)[nH]c(C(=O)OCC(=O)NCc2ccc(F)cc2)c1C,7.17%
6,C/C(=N\NC(=O)c1cc(C)oc1C)c1ccc2c(c1)OCO2,-11.9%
7,C/C(CC(=O)Nc1cccc2c1CCCC2)=N\NC(=O)c1ccccc1N,-5.32%
8,CCCCNC(=O)COc1ccccc1C(=O)c1cc(C#N)c(=O)n(CCOC)c1,-22.4%
9,O=C(CC(c1ccccc1)(c1ccccc1)c1ccccc1)N[C@@H](Cc1ccccc1)C(=O)O,13.3%
10,O=c1c2c(nc3nc(NCc4cccc(Cl)c4)[nH]n13)CCC2,1.8%
11,C=CCNC(=S)NC1CC(C)(C)NC(C)(C)C1,10.3%
12,CC(=O)Nc1ccc(S(=O)(=O)N2CCc3cc4c(cc3C2C)OCCCO4)cc1 (stereo not shown),-5.91%
13,NC(=O)c1ccc2nc(-c3ccccc3)c(-c3ccccc3)nc2c1,2.96%
14,C=CCn1c(SCC(=O)NC(=O)NCCC)nnc1C1CCCCC1,8.69%
15,CCN1CCN(C(=O)c2cc3c(OC)c(OC)c(OC)cc3[nH]2)CC1,34.6%
16,COc1cccc(OCc2nnc3n2N=C(c2ccccc2)C(CC(=O)O)S3)c1 (stereo not shown),16.7%
17,Cc1cccc(-n2ncc3c(NCc4ccccn4)ncnc32)c1,-8.88%
18,COc1ccc(C(=O)COC(=O)C(C(C)C)N2C(=O)C3C4C=CC(C4)C3C2=O)cc1 (stereo not shown),-7.3%
19,O=C(COc1cccc(Cl)c1)Nc1ccc2c(c1)CCC2,-3.73%
20,Cc1cc(C)c(S(=O)(=O)N(C2=NCCS2)S(=O)(=O)c2c(C)cc(C)cc2C)c(C)c1,1.88%
21,O=C(c1cc2cc(Cl)ccc2oc1=O)N1CCCCCCC1,16.6%
22,O=C(O)CCc1ccc(S(=O)(=O)Nc2ccc(OCc3ccccc3)cc2)cc1,7.19%

row,Compound,"hERG current change (%, negative = inhibition) at 10uM"
1,Cc1cc(OCC(=O)Nn2cnnc2)ccc1Br,1.74%
2,O=C1COc2cc(S(=O)(=O)CCC(=O)N3CCCCC3)c(Cl)cc2N1,-34.9%
3,N#Cc1ccc(C(=O)OCC(=O)N2CCOCC2)cc1,14.3%
4,CC(CCc1ccccc1)NC(=O)CCNS(=O)(=O)c1ccccc1C(F)(F)F (stereo not shown),-12.4%
5,FC(F)(F)c1nnc2c(Sc3ccccc3)nc3ccccc3n12,4.21%
6,O=C(CN1CCN(c2ccccc2F)CC1)c1c[nH]c2ccccc12,6.29%
7,O=C1c2ccccc2C(=O)N1CN(C(=O)COc1ccccc1)c1ccc(F)cc1,-9.38%
8,COC(=O)c1sccc1NS(=O)(=O)c1ccc(OC)cc1,-15.1%
9,C1=CN2CCC1C(c1ccccc1)C2.Cl (stereo not shown),-0.894%
10,Cc1cccc(CCN(C(=O)c2csnn2)C(C(=O)NC2CCCC2)c2ccco2)c1 (stereo not shown),-37.1%
11,O=C(CSc1nnc(C2CC2)n1Cc1ccco1)NCC(F)(F)F,13.6%
12,CCC(COC(=O)Nc1ccccc1)NC(=O)OC(C)C (stereo not shown),9.06%
13,CCCCCc1cc(=O)oc2c(C(CCN3CCN(c4ccccc4)CC3)c3ccc(N(C)C)cc3)c(OC)cc(OC)c12 (stereo not shown),5.51%
14,O=C(c1cc(COc2ccc(F)cc2F)on1)N1CCN(C(=O)c2ccco2)CC1,-57.3%
15,C=C1CCN([C@@H](CC(C)C)C(=O)NCc2ccc(Cl)cc2)S(=O)(=O)c2ccccc21,25.3%
16,Cc1cc2cc(C(=O)N3CCc4c([nH]c5ccccc45)C3c3ccccn3)ccc2o1 (stereo not shown),9.41%
17,C/C(=N\Nc1cc(C(F)(F)F)ccc1Cl)c1ccccc1O,25.3%
18,COc1ccc(C#Cc2ccc3c(c2)c(=O)c2ccccc2n3C)cc1,15.2%
19,CCC(=O)OCc1c(C(F)(F)F)nn(C)c1Sc1ccc(Cl)cc1,-4.76%
20,Cc1ccc(S(=O)(=O)CC(=O)Nc2cccc(C)n2)cc1,6.48%
21,COc1ccc(OCCNS(=O)(=O)Cc2ccccc2)cc1,0.161%
22,CCNC(=O)NC(=O)C(C)OC(=O)CCCc1nc2ccccc2s1 (stereo not shown),10.8%

row,Compound,"hERG current change (%, negative = inhibition) at 10uM"
1,Cc1ccc(C(C)C)cc1OCCN1CCCC1,-23.3%
2,CC(C)CNC(=O)C(=O)NCCCN1CCOCC1,-61.6%
3,COc1ccc(SCc2noc(C(=O)NC(C)C)c2C(=O)O)cc1,3%
4,COc1ccc2c(c1OC)C(=O)OC2Nc1nc(-c2cc3ccccc3oc2=O)cs1 (stereo not shown),-8.35%
5,Cc1cccc(C2Nc3ccccc3C(=O)N2c2ccc(F)cc2)n1 (stereo not shown),-12.9%
6,O=C(c1ccc(OC2CCN(Cc3cccc(OCCO)c3)CC2)cc1)N1CCCC1,-2.15%
7,CCOC(=O)c1ccc(-c2c(-c3ccccc3OC)sc3cc4c(cc23)OCO4)cc1F,12.5%
8,CCOc1ccc(NC(=O)NCC2CCN(Cc3ccc(F)cc3)CC2)cc1,-76.4%
9,Cn1c(CN2CCN(C(=O)c3ccc(F)cc3)CC2)nc2cc([N+](=O)[O-])ccc21,-67.5%
10,O=C(N/N=C/c1ccsc1)c1ccccn1,13.5%
11,COc1ccc(NS(=O)(=O)c2ccc(NC(=O)C(CCSC)NC(N)=O)cc2)cc1 (stereo not shown),12.7%
12,CCN(CC)CCCNC(=O)c1ccc(C)c(NC(=O)C2=C(C)OCCS2)c1,5.46%
13,Cc1ccc(NC(=S)NC(=O)c2ccc(-c3ccc(Cl)cc3)o2)c(O)c1,25.2%
14,Cc1ccccc1N/C(SCc1ccc(Cl)cc1)=C(/C#N)C(=O)NCc1ccco1,5.06%
15,COc1ccc2[nH]c(=O)c(CN(CCN3CCCC3)C(=O)Nc3ccccc3Cl)cc2c1,-47.6%
16,COc1ccc(O)c(C(=O)/C=C/c2cc3ccccc3o2)c1,7.22%
17,COc1ccc(CCNc2nc(-c3cccnc3)nc3ccccc23)cc1OC,-1.54%
18,COc1ccc(CN2CCC(Oc3ccc(C(=O)N4CCCC4)cc3)CC2)c(F)c1,-51.4%
19,CNC(=O)c1cc2c(s1)-c1ccccc1CC2,8.32%
20,Cc1cccc(NC(=O)C(C)Oc2ccccc2C)n1 (stereo not shown),1.17%
21,COc1ccc(/C=N/Nc2cc(C)nc(-n3nc(C)cc3C)n2)c(OC)c1,8.42%
22,O=S(=O)(Nc1ccc(N2CCOCC2)cc1)c1c(F)cc(F)cc1Br,7.75%
